Experimental data taken from patent US9873709B2 (priority 2013, dated 2018).

target: isolated recombinant JAK1 kinase domain (Homo sapiens (Human), UniProt P23458); conditions: read-out: JAK1 Ki; isolated recombinant JAK1 kinase domain, 25 μM ATP
Sequence (P23458 875-1153): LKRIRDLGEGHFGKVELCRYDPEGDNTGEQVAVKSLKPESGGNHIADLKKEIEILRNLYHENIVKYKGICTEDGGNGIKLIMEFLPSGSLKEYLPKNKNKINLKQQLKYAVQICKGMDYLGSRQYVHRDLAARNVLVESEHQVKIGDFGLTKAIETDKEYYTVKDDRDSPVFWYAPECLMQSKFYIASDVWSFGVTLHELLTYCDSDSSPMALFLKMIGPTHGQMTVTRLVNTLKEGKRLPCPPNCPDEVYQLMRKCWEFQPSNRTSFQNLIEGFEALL

| Ki [nM] | SMILES |
| --- | --- |
| 5.78 | CCCC(=O)N1CC=C(c2cccn3nc(Nc4ccc(C(=O)N(C)C5CCN(C)CC5)cc4)nc23)CC1 [Example 2-289, 4-[[8-(1-butanoyl-3,6-dihydro-2H-pyridin-4-yl)-[1,2,4]triazolo[1,5-a]pyridin-2-yl]amino]-N-methyl-N-(1-methyl-4-piperidyl)benzamide] |
| 1.9 | CCOC(=O)N1CC=C(c2cccn3nc(Nc4ccc(C(=O)NCCCN5CCN(C)CC5)cc4)nc23)CC1 [Example 2-291, ethyl 4-[2-[4-[3-(4-methylpiperazin-1-yl)propylcarbamoyl]anilino]-[1,2,4]triazolo[1,5-a]pyridin-8-yl]-3,6-dihydro-2H-pyridine-1-carboxylate] |
| 5.27 | CCOC(=O)N1CC=C(c2cccn3nc(Nc4ccc(C(=O)N(C)C5CCN(C)C5)cc4)nc23)CC1 (stereo not shown) [Example 2-292, ethyl 4-[2-[4-[methyl-(1-methylpyrrolidin-3-yl)carbamoyl]anilino]-[1,2,4]triazolo[1,5-a]pyridin-8-yl]-3,6-dihydro-2H-pyridine-1-carboxylate] |
| 3.15 | CCOC(=O)N1CC=C(c2cccn3nc(Nc4ccc(C(=O)NCCN5CCCCC5)cc4)nc23)CC1 [Example 2-294, ethyl 4-[2-[4-[2-(1-piperidyl)ethylcarbamoyl]anilino]-[1,2,4]triazolo[1,5-a]pyridin-8-yl]-3,6-dihydro-2H-pyridine-1-carboxylate] |
| 3.27 | CCOC(=O)N1CC=C(c2cccn3nc(Nc4ccc(C(=O)N5CCCC(N6CCOCC6)C5)cc4)nc23)CC1 (stereo not shown) [Example 2-295, ethyl 4-[2-[4-(3-morpholinopiperidine-1-carbonyl)anilino]-[1,2,4]triazolo[1,5-a]pyridin-8-yl]-3,6-dihydro-2H-pyridine-1-carboxylate] |
| 1.73 | CCOC(=O)N1CC=C(c2cccn3nc(Nc4ccc(C(=O)NCC5CCNC5)cc4)nc23)CC1 (stereo not shown) [Example 2-296, ethyl 4-[2-[4-(pyrrolidin-3-ylmethylcarbamoyl)anilino]-[1,2,4]triazolo[1,5-a]pyridin-8-yl]-3,6-dihydro-2H-pyridine-1-carboxylate] |
| 2.05 | CCOC(=O)N1CC=C(c2cccn3nc(Nc4ccc(C(=O)N5CCN(Cc6cccnc6)CC5)cc4)nc23)CC1 [Example 2-297, ethyl 4-[2-[4-[4-(3-pyridylmethyl)piperazine-1-carbonyl]anilino]-[1,2,4]triazolo[1,5-a]pyridin-8-yl]-3,6-dihydro-2H-pyridine-1-carboxylate] |
| 3.08 | CCOC(=O)N1CC=C(c2cccn3nc(Nc4ccc(C(=O)N5CCC(N6CCN(C)CC6)CC5)cc4)nc23)CC1 [Example 2-298, ethyl 4-[2-[4-[4-(4-methylpiperazin-1-yl)piperidine-1-carbonyl]anilino]-[1,2,4]triazolo[1,5-a]pyridin-8-yl]-3,6-dihydro-2H-pyridine-1-carboxylate] |
| 3.05 | CCOC(=O)N1CC=C(c2cccn3nc(Nc4ccc(C(=O)N5CCN(CCn6ccnc6)CC5)cc4)nc23)CC1 [Example 2-299, ethyl 4-[2-[4-[4-(2-imidazol-1-ylethyl)piperazine-1-carbonyl]anilino]-[1,2,4]triazolo[1,5-a]pyridin-8-yl]-3,6-dihydro-2H-pyridine-1-carboxylate] |
| 3.71 | CCOC(=O)N1CC=C(c2cccn3nc(Nc4ccc(C(=O)N5CCN(CC(C)C)CC5)cc4)nc23)CC1 [Example 2-301, ethyl 4-[2-[4-(4-isobutylpiperazine-1-carbonyl)anilino]-[1,2,4]triazolo[1,5-a]pyridin-8-yl]-3,6-dihydro-2H-pyridine-1-carboxylate] |
| 3.48 | CCOC(=O)N1CC=C(c2cccn3nc(Nc4ccc(C(=O)N5CCC(N6CCCC6)CC5)cc4)nc23)CC1 [Example 2-302, ethyl 4-[2-[4-(4-pyrrolidin-1-ylpiperidine-1-carbonyl)anilino]-[1,2,4]triazolo[1,5-a]pyridin-8-yl]-3,6-dihydro-2H-pyridine-1-carboxylate] |
| 3.61 | CCOC(=O)N1CC=C(c2cccn3nc(Nc4ccc(C(=O)N(C5CC5)C5CCN(C)CC5)cc4)nc23)CC1 [Example 2-303, ethyl 4-[2-[4-[cyclopropyl-(1-methyl-4-piperidyl)carbamoyl]anilino]-[1,2,4]triazolo[1,5-a]pyridin-8-yl]-3,6-dihydro-2H-pyridine-1-carboxylate] |
| 6.24 | CCOC(=O)N1CC=C(c2cccn3nc(Nc4ccc(C(=O)N5CCCC(O)(CN(C)C)CC5)cc4)nc23)CC1 (stereo not shown) [Example 2-304, ethyl 4-[2-[4-[4-[(dimethylamino)methyl]-4-hydroxy-azepane-1-carbonyl]anilino]-[1,2,4]triazolo[1,5-a]pyridin-8-yl]-3,6-dihydro-2H-pyridine-1-carboxylate] |
| 3.84 | CCOC(=O)N1CC=C(c2cccn3nc(Nc4ccc(C(=O)N(C)CC5CCN(CC)C5)cc4)nc23)CC1 (stereo not shown) [Example 2-305, ethyl 4-[2-[4-[(1-ethylpyrrolidin-3-yl)methyl-methyl-carbamoyl]anilino]-[1,2,4]triazolo[1,5-a]pyridin-8-yl]-3,6-dihydro-2H-pyridine-1-carboxylate] |
| 2.65 | CCOC(=O)N1CC=C(c2cccn3nc(Nc4ccc(C(=O)N5CCC(CN)CC5)cc4)nc23)CC1 [Example 2-307, ethyl 4-[2-[4-[4-(aminomethyl)piperidine-1-carbonyl]anilino]-[1,2,4]triazolo[1,5-a]pyridin-8-yl]-3,6-dihydro-2H-pyridine-1-carboxylate] |
| 1.98 | CCOC(=O)N1CC=C(c2cccn3nc(Nc4ccc(C(=O)N5CCC6CNCC65)cc4)nc23)CC1 (stereo not shown) [Example 2-308, ethyl 4-[2-[4-(3,3a,4,5,6,6a-hexahydro-2H-pyrrolo[2,3-c]pyrrole-1-carbonyl)anilino]-[1,2,4]triazolo[1,5-a]pyridin-8-yl]-3,6-dihydro-2H-pyridine-1-carboxylate] |
| 2.09 | CCOC(=O)N1CC=C(c2cccn3nc(Nc4ccc(C(=O)N5CCC6(CC5)CNCCO6)cc4)nc23)CC1 [Example 2-309, ethyl 4-[2-[4-(1-oxa-4,9-diazaspiro[5.5]undecane-9-carbonyl)anilino]-[1,2,4]triazolo[1,5-a]pyridin-8-yl]-3,6-dihydro-2H-pyridine-1-carboxylate] |
| 3.87 | CCOC(=O)N1CC=C(c2cccn3nc(Nc4ccc(C(=O)N5CCC6(CCCN6)C5)cc4)nc23)CC1 (stereo not shown) [Example 2-310, ethyl 4-[2-[4-(1,7-diazaspiro[4.4]nonane-7-carbonyl)anilino]-[1,2,4]triazolo[1,5-a]pyridin-8-yl]-3,6-dihydro-2H-pyridine-1-carboxylate] |
| 6.86 | CCOC(=O)N1CC=C(c2cccn3nc(Nc4ccc(C(=O)N5CCCC56CCNC6)cc4)nc23)CC1 (stereo not shown) [Example 2-311, ethyl 4-[2-[4-(1,7-diazaspiro[4.4]nonane-1-carbonyl)anilino]-[1,2,4]triazolo[1,5-a]pyridin-8-yl]-3,6-dihydro-2H-pyridine-1-carboxylate] |
| 2.06 | CCOC(=O)N1CC=C(c2cccn3nc(Nc4ccc(C(=O)N5CCC6(CCCNC6)C5)cc4)nc23)CC1 (stereo not shown) [Example 2-312, ethyl 4-[2-[4-(2,9-diazaspiro[4.5]decane-2-carbonyl)anilino]-[1,2,4]triazolo[1,5-a]pyridin-8-yl]-3,6-dihydro-2H-pyridine-1-carboxylate] |
| 1.57 | O=C(CCC(F)(F)F)N1CC=C(c2cccn3nc(Nc4ccc(C(=O)N5CC6CNCC6C5)cc4)nc23)CC1 (stereo not shown) [Example 2-313, 1-[4-[2-[4-(2,3,3a,4,6,6a-hexahydro-1H-pyrrolo[3,4-c]pyrrole-5-carbonyl)anilino]-[1,2,4]triazolo[1,5-a]pyridin-8-yl]-3,6-dihydro-2H-pyridin-1-yl]-4,4,4-trifluoro-butan-1-one] |
| 0.63 | O=C(CCC(F)(F)F)N1CC=C(c2cccn3nc(Nc4ccc(C(=O)N5CCC6(CC5)CNC6)cc4)nc23)CC1 [Example 2-314, 1-[4-[2-[4-(2,7-diazaspiro[3.5]nonane-7-carbonyl)anilino]-[1,2,4]triazolo[1,5-a]pyridin-8-yl]-3,6-dihydro-2H-pyridin-1-yl]-4,4,4-trifluoro-butan-1-one] |
| 1.73 | NC1CC2(CCN(C(=O)c3ccc(Nc4nc5c(C6=CCN(C(=O)CCC(F)(F)F)CC6)cccn5n4)cc3)CC2)C1 [Example 2-315, 1-[4-[2-[4-(2-amino-7-azaspiro[3.5]nonane-7-carbonyl)anilino]-[1,2,4]triazolo[1,5-a]pyridin-8-yl]-3,6-dihydro-2H-pyridin-1-yl]-4,4,4-trifluoro-butan-1-one] |
| 0.69 | O=C(NCCC1CCCN1)c1ccc(Nc2nc3c(C4=CCN(C(=O)CCC(F)(F)F)CC4)cccn3n2)cc1 (stereo not shown) [Example 2-316, N-(2-pyrrolidin-2-ylethyl)-4-[[8-[1-(4,4,4-trifluorobutanoyl)-3,6-dihydro-2H-pyridin-4-yl]-[1,2,4]triazolo[1,5-a]pyridin-2-yl]amino]benzamide] |
| 3.03 | O=C(NCC1CCCN1)c1ccc(Nc2nc3c(C4=CCN(C(=O)CCC(F)(F)F)CC4)cccn3n2)cc1 (stereo not shown) [Example 2-317, N-(pyrrolidin-2-ylmethyl)-4-[[8-[1-(4,4,4-trifluorobutanoyl)-3,6-dihydro-2H-pyridin-4-yl]-[1,2,4]triazolo[1,5-a]pyridin-2-yl]amino]benzamide] |
| 0.65 | O=C(CCC(F)(F)F)N1CC=C(c2cccn3nc(Nc4ccc(C(=O)N5CCNCC5)cc4)nc23)CC1 [Example 2-318, 4,4,4-trifluoro-1-[4-[2-[4-(piperazine-1-carbonyl)anilino]-[1,2,4]triazolo[1,5-a]pyridin-8-yl]-3,6-dihydro-2H-pyridin-1-yl]butan-1-one] |
| 0.57 | CC1CNCCN1C(=O)c1ccc(Nc2nc3c(C4=CCN(C(=O)CCC(F)(F)F)CC4)cccn3n2)cc1 (stereo not shown) [Example 2-319, 4,4,4-trifluoro-1-[4-[2-[4-(2-methylpiperazine-1-carbonyl)anilino]-[1,2,4]triazolo[1,5-a]pyridin-8-yl]-3,6-dihydro-2H-pyridin-1-yl]butan-1-one] |
| 0.76 | O=C(CCC(F)(F)F)N1CC=C(c2cccn3nc(Nc4ccc(C(=O)N5CC[C@H]6CNC[C@H]65)cc4)nc23)CC1 [Example 2-320, 1-[4-[2-[4-[(3aS,6aS)-3,3a,4,5,6,6a-hexahydro-2H-pyrrolo[2,3-c]pyrrole-1-carbonyl]anilino]-[1,2,4]triazolo[1,5-a]pyridin-8-yl]-3,6-dihydro-2H-pyridin-1-yl]-4,4,4-trifluoro-butan-1-one] |
